Source: the supplement of paper PMC4604168 (melanoma cell lines)
This is one part of the list. Most values come without repeats; read them as rough.

Legend:
Assay in all cases: cell count relative to DMSO control; melanoma cells; higher = more viable cells
Conditions in all cases: library dose: low library concentration; 72 h
[1] = system: WM115
[2] = system: WM1716
[3] = system: WM1745
[4] = system: WM3526
[5] = system: WM3619
[6] = system: WM451Lu
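Note: cell number obtained by counting DAPI-stained nuclei in high-throughput microscope images with image analysis software, screen run in 1,536-well plates.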

SMILES | cell count [1] [%] | cell count [2] [%] | cell count [3] [%] | cell count [4] [%] | cell count [5] [%] | cell count [6] [%]
Cn1cc(C2=C(c3cn(C4CCN(Cc5ccccn5)CC4)c4ccccc34)C(=O)NC2=O)c2ccccc21 [Enzastaurin] + CC(C)CCN1c2nc(Nc3cc(F)c(O)c(F)c3)ncc2N(C)C(=O)C1C [BID1870] (first compound 0.8 µM, partner dose 0.2 µM) | 102 | 108 | 90.1 | 109 | 106 | 105
C[As](C)SC[C@H](NC(=O)CC[C@H](N)C(=O)O)C(=O)NCC(=O)O [Darinaparsin] + O=c1cc(-c2cccc3c2Sc2ccccc2S3)oc(N2CCOCC2)c1 [KU55933] (first compound 0.4 µM, partner dose 1 µM) | 86.8 | 99.2 | 98.3 | 103 | 114 | 100
Cn1cc(C2=C(c3cn(C4CCN(Cc5ccccn5)CC4)c4ccccc34)C(=O)NC2=O)c2ccccc21 [Enzastaurin] + COC(=O)c1sccc1S(=O)(=O)Nc1ccc(Nc2ccccc2)cc1OC [GSK0660] (first compound 0.8 µM, partner dose 1 µM) | 122 | 113 | 88.8 | 90.6 | 157 | 112
N.N.[Cl][Pt][Cl] [cisplatin] + Cn1nnc2c(C(N)=O)ncn2c1=O [temozolomide] (first compound 1.6 µM, partner dose 2 µM) | 102 | 94.1 | 99.2 | 118 | 87.1 | 103
C[C@]12O[C@H](C[C@]1(O)CO)n1c3ccccc3c3c4c(c5c6ccccc6n2c5c31)CNC4=O [Lestaurtinib] + COc1ccc(Cl)c(Nc2nc3ccccc3nc2NS(=O)(=O)c2cccc(NC(=O)C(C)(C)N)c2)c1 [XL147] (first compound 0.004 µM, partner dose 0.8 µM) | 93.4 | 103 | 101 | 97 | 74.9 | 117
C[C@]12O[C@H](C[C@]1(O)CO)n1c3ccccc3c3c4c(c5c6ccccc6n2c5c31)CNC4=O [Lestaurtinib] + N#Cc1c(O)c2c(-c3ccc(-c4ccccc4O)cc3)csc2[nH]c1=O [A769662] (first compound 0.004 µM, partner dose 2 µM) | 108 | 98.6 | 83.6 | 83.6 | 88 | 113
C[C@]12O[C@H](C[C@]1(O)CO)n1c3ccccc3c3c4c(c5c6ccccc6n2c5c31)CNC4=O [Lestaurtinib] + C[C@@H]1CCN(C(=O)CC#N)C[C@@H]1N(C)c1ncnc2[nH]ccc12 [CP690550] (first compound 0.004 µM, partner dose 1 µM) | 109 | 115 | 104 | 75.7 | 106 | 96.6
C[C@]12O[C@H](C[C@]1(O)CO)n1c3ccccc3c3c4c(c5c6ccccc6n2c5c31)CNC4=O [Lestaurtinib] + CC(=O)O[C@@]12CO[C@@H]1C[C@H](O)[C@@]1(C)C(=O)[C@H](O)C3=C(C)[C@@H](OC(=O)[C@H](O)[C@@H](NC(=O)OC(C)(C)C)c4ccccc4)C[C@@](O)([C@@H](OC(=O)c4ccccc4)[C@H]21)C3(C)C [Docetaxel] (first compound 0.004 µM, partner dose 0.0001 µM) | 93.3 | 55.7 | 66.1 | 54.9 | 68.9 | 68.8
N.N.[Cl][Pt][Cl] [cisplatin] + COc1cc2ncnc(Nc3ccc(Oc4ccccc4)cc3)c2cc1OC [SrcI1] (first compound 1.6 µM, partner dose 2 µM) | 111 | 131 | 84.6 | 104 | 97 | 106
C[As](C)SC[C@H](NC(=O)CC[C@H](N)C(=O)O)C(=O)NCC(=O)O [Darinaparsin] + Cn1nnc2c(C(N)=O)ncn2c1=O [temozolomide] (first compound 0.4 µM, partner dose 2 µM) | 105 | 92.7 | 122 | 92.5 | 93.1 | 89.6
C[C@]12O[C@H](C[C@]1(O)CO)n1c3ccccc3c3c4c(c5c6ccccc6n2c5c31)CNC4=O [Lestaurtinib] + C=CCn1c(=O)c2cnc(Nc3ccc(N4CCN(C)CC4)cc3)nc2n1-c1cccc(C(C)(C)O)n1 [MK1775] (first compound 0.004 µM, partner dose 0.02 µM) | 90.4 | 85.7 | 82.8 | 89.6 | 54.6 | 94.3
N.N.[Cl][Pt][Cl] [cisplatin] + Nc1cccc2c1CN(C1CCC(=O)NC1=O)C2=O [lenalidomide] (first compound 1.6 µM, partner dose 1 µM) | 93 | 111 | 94.5 | 103 | 82.4 | 103
